# Test results reported in PubChem BioAssay AID1768 (National Center for Advancing Translational Sciences (NCATS), 2009).
# In all, about 270,000 compounds went through this assay and about 620 (0.23%) were called active. The shares of active, inactive and inconclusive entries below differ from those in the screen. Calls come from the whole dose curve; as a rule, active = well fitted inhibition curve with a large enough effect in the polarisation, with a control signal flat (not every such curve was filed as active); inconclusive = small, poorly fitted or top-dose-only effect, or effect the other way, or a change in a side signal; inactive = no such curve, though single readings can be large or run the other way; the % refers to the polarisation. Where the call is inconclusive, the potency comes from a doubtful curve fit. “Side channel” marks fits to a control or component signal instead of the main read-out.
# Biological target: Menin (Homo sapiens) (UniProt O00255)
# Assay: qHTS Assay for Inhibitors Targeting the Menin-MLL Interaction in MLL Related Leukemias: Competition With Texas Red Labeled MLL-derived Mutant Peptide; for FP activity change, negative = inhibition: % of control where 0% means no effect
# Settings: fluorescence polarization; FP activity change, negative = inhibition: at 61.6 µM (top of the series)
# Potency is the fitted concentration of half-maximal effect; tags give direction and shape of the fitted curve or compound fluorescence and quenching.
# Sequence of UniProt O00255 (O00255 whole entry, looked up): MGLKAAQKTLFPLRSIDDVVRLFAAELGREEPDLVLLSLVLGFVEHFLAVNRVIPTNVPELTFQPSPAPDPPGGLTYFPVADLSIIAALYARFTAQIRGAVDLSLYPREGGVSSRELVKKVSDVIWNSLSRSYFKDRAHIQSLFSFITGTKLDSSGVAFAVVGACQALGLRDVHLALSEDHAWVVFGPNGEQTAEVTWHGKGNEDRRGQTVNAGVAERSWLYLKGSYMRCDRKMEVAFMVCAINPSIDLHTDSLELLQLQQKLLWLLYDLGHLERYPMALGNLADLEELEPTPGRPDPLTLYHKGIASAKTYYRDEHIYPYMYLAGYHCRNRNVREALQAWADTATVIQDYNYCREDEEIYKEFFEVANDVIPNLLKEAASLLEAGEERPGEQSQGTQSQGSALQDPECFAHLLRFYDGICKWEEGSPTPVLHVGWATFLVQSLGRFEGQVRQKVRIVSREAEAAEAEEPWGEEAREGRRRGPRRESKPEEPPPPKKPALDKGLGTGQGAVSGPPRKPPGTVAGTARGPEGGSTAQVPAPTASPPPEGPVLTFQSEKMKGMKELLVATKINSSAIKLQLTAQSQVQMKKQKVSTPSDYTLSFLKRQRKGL
Compound,Potency,"FP activity change, negative = inhibition"
COc1cccc(-c2ccc(=O)n(CC(=O)Nc3ccc(C(=O)N4CCCC4)cc3)n2)c1,"inconclusive: 22.4 µM [fluorescent, side channel, single point]",
O=C(/C(=N\O)n1cncn1)c1ccc(Br)cc1Br,"inconclusive: 25.1 µM [quencher, side channel, partial curve]",
Cc1ccc(NC(=O)C(OC(=O)c2cc(C)oc2C)c2ccccc2)cc1 (configuration not stated),,inactive: 19.9%
O=[N+]([O-])c1cccc(Cl)c1NCCNc1ncc(C(F)(F)F)cc1Cl,"inconclusive: 35.5 µM [inhibitor, single point]",
COc1cc(/C=N/Nc2ccc(Cl)c(C(=O)O)c2)ccc1OC(=O)c1ccccc1F,"inconclusive: 14.1 µM [quencher, side channel, partial curve]",
COc1ccc(/C=N\NS(=O)(=O)c2ccc(Cl)cc2)cc1COc1ccccc1[N+](=O)[O-],"inconclusive: 10 µM [quencher, side channel, partial curve]",
COc1cccc(-c2nn(C)c3sc(C(=O)Nc4ccc5c(c4)OCCO5)cc23)c1,"inconclusive: 2 µM [quencher, side channel, full curve, poor fit]",
CCOc1ccc(/C=N/NC(=O)c2[nH]ncc2Br)c(O)c1,"inconclusive: 10 µM [quencher, side channel, partial curve]",
COc1ccccc1CNc1nc2nc(C)cc(=O)n2[nH]1,"inconclusive: 39.8 µM [inhibitor, single point]",
CCCc1nc2ccccc2n1Cc1ccccc1OC,"inconclusive: 15.8 µM [fluorescent, side channel, partial curve]",
CSc1ccc(CN(C)C(=O)C(c2ccccc2)c2ccccc2)cc1,"inconclusive: 15.8 µM [fluorescent, side channel, partial curve]",
CCCn1c(C)cs/c1=N\C(=S)Nc1ccccc1,"inconclusive: 39.8 µM [fluorescent, side channel, single point]",
COc1cc(C2NC(=O)NC(c3ccccc3)=C2C(C)=O)cc([N+](=O)[O-])c1O (configuration not stated),"inconclusive: 12.6 µM [quencher, side channel, partial curve]",
O=C(CCNC(=O)c1ccc(Br)o1)NCc1ccccc1Cl,"inconclusive: 25.1 µM [fluorescent, partial curve]",
O=[N+]([O-])c1cccnc1S(=O)(=O)c1ccccc1,"inconclusive: 39.8 µM [quencher, side channel, single point]",
O=C(OCc1nnc(-c2ccccc2)o1)c1ccc2c(c1)OCCO2,"inconclusive: 3.55 µM [inhibitor, full curve, poor fit]",
Cc1ccc2c(c1)-c1[nH]c(=S)ncc1CS2,"inconclusive: 11.2 µM [quencher, side channel, partial curve]",
Cc1cc(CSc2ccccc2)ccc1NC(=O)c1cccc([N+](=O)[O-])c1,"inconclusive: 8.91 µM [quencher, side channel, partial curve]",
CNc1oc(-c2ccc(F)cc2)nc1S(=O)(=O)c1ccccc1,"inconclusive: 35.5 µM [fluorescent, side channel, single point]",

Compound,Potency,"FP activity change, negative = inhibition"
O=C(N/N=C/c1sc2ccccc2c1O)c1cccc2ccccc12,"inconclusive: 31.6 µM [quencher, side channel, single point]",
CC(C)c1ccc(C2CC(=O)c3cnc(N4CCc5ccccc5C4)nc3C2)cc1 (configuration not stated),"inconclusive: 11.2 µM [inhibitor, partial curve]",
Cc1cc(Cl)cc2c(N=Nc3ccccc3C(=O)O)c(O)[nH]c12,"inconclusive: 4.47 µM [quencher, side channel, full curve]",
CCc1nnc(NC(=O)c2cc(-c3ccco3)nc3ccccc23)s1,"inconclusive: 25.1 µM [quencher, side channel, partial curve]",
COC(=O)c1cccc(CSc2nc(-c3ccccc3)c(C#N)c(=O)[nH]2)c1,"inconclusive: 39.8 µM [quencher, side channel, single point]",
C(=C\c1ccc(/C=C/c2ccccc2)nn1)/c1ccccc1,"inconclusive: 39.8 µM [fluorescent, single point]",
Cc1ccc(C(=O)/C=C/c2ccc(-c3ccc(C)cc3)o2)cc1,"inconclusive: 20 µM [quencher, side channel, partial curve]",
O=c1c2ccccc2[nH]c(=S)n1Cc1ccc2c(c1)OCO2,"inconclusive: 7.94 µM [fluorescent, side channel, full curve]",
CCNc1ccc(Br)cc(C(=O)/C=C/c2ccc3c(c2)OCO3)c1=O,"inconclusive: 28.2 µM [quencher, side channel, partial curve]",
Cc1cc(C)c(C(N)=O)c(NC(=O)Nc2ccccc2Cl)n1,"inconclusive: 2.51 µM [inhibitor, full curve, poor fit]",
CCc1c(C)nc(N2CCOCC2)[nH]c1=O,"inconclusive: 7.94 µM [inhibitor, single point]",
COCC(C)n1c(SCc2ccc(C(=O)OC)cc2)nc2ccccc2c1=O (configuration not stated),"inconclusive: 22.4 µM [fluorescent, side channel, partial curve]",
O=C(Nc1nc(-c2ccc(F)cc2)cs1)c1cccc(N2C(=O)CCC2=O)c1,"inconclusive: 15.8 µM [quencher, side channel, partial curve]",
CCOC(=O)C1CCN(C(=O)C(C)Oc2ccc(Br)cc2)CC1 (configuration not stated),"inconclusive: 15.8 µM [fluorescent, side channel, partial curve]",
Cc1ccc(S(=O)(=O)Nc2ccc(-c3csc(-c4ccccc4)n3)cc2)cc1,"inconclusive: 39.8 µM [inhibitor, single point]",
CC1(C)C=C(c2ccc(C=O)s2)CC(C)(C)N1C=O,,inactive: -9.77%
CCN(C(=O)COC(=O)c1cc(-c2cccs2)nc2ccccc12)C1CCS(=O)(=O)C1 (configuration not stated),"inconclusive: 28.2 µM [quencher, side channel, partial curve]",
COc1ccc(CNc2nc3ccccc3n2CCN2CCCCC2)cc1,"inconclusive: 1.58 µM [fluorescent, side channel, full curve, poor fit]",
O=C(COc1ncnc2cc([N+](=O)[O-])ccc12)N(CCc1ccccc1)Cc1ccccc1,"inconclusive: 11.2 µM [quencher, side channel, partial curve]",

Compound,Potency,"FP activity change, negative = inhibition"
CCN(C(=O)CN1CCN(c2ccc(O)cc2)CC1)c1c(N)n(Cc2ccccc2)c(=O)[nH]c1=O,,inactive: 10.2%
O=C(N/N=C/c1c[nH]c2ccc(Br)cc12)c1ccn(Cc2ccc(Cl)cc2Cl)n1,"inconclusive: 39.8 µM [inhibitor, single point]",
COC1C=CO[C@@]2(C)Oc3c(C)c(O)c4c(O)c(c(C=NN5CCN(C)CC5)c(O)c4c3C2=O)NC(=O)/C(C)=C\C=CC(C)C(O)[C@@H](C)C(O)C(C)[C@H](OC(C)=O)C1C (some centres not stated),"inconclusive: 22.4 µM [quencher, side channel, partial curve]",
Cc1ccc(NC(=O)CCNS(=O)(=O)c2cccc3nonc23)cc1Cl,"inconclusive: 31.6 µM [quencher, side channel, single point]",
CC(/C=N/N1C(=O)CSC1=S)=C\c1ccccc1,"inconclusive: 11.2 µM [quencher, side channel, partial curve]",
C=CCn1c(N/N=C/c2ccc(O)cc2)nc2ccccc2c1=O,"inconclusive: 15.8 µM [quencher, side channel, partial curve]",
Cc1cc(=O)[nH]c(Nc2ccc(Cl)cc2)n1,,inactive: 10.6%
CN(C)S(=O)(=O)c1ccc(C(=O)NCCN=C2NS(=O)(=O)c3ccccc32)cc1,"inconclusive: 39.8 µM [inhibitor, single point]",
Cc1ccc(CCNC(=O)C2CCC(=O)N(CC3CCCCC3)C2)cc1 (configuration not stated),"inconclusive: 14.1 µM [inhibitor, partial curve, poor fit]",
O=C(COC(=O)c1ccc(S(=O)(=O)Nc2ccccc2)cc1)NCc1ccco1,"inconclusive: 35.5 µM [quencher, side channel, single point]",
COc1cc(C(=O)Nc2cccc(-n3cnnn3)c2)cc(Cl)c1OC,"inconclusive: 25.1 µM [quencher, side channel, single point]",
O=C(Nc1ccc2nn(-c3ccccc3)nc2c1)c1ccc(Br)o1,"inconclusive: 11.2 µM [quencher, side channel, partial curve]",
CCOc1ccc(OCC(=O)Nc2nccs2)cc1,,inactive: 1.19%
COC(=O)c1cc(Cl)c(NS(=O)(=O)c2ccccc2)cc1OC,"inconclusive: 39.8 µM [quencher, side channel, single point]",
COCCCNC(=O)c1ccc2nc3ccccc3c(=O)n2c1,,inactive: 5.36%
COc1ccccc1-c1cn[nH]c1-c1ccc(O)cc1O,,inactive: 2.02%
COc1ccc(/C=C/c2c([N+](=O)[O-])c(=O)n(C)c(=O)n2C)cc1OC,"inconclusive: 8.91 µM [inhibitor, single point]",
CCn1c2ccccc2c2cc(CNCCCN3CCOCC3)ccc21,"inconclusive: 25.1 µM [inhibitor, single point]",
COc1ccc(-n2nc(C(=O)N3CCN(c4ccc(F)cc4)CC3)c3ccccc3c2=O)c(OC)c1,"inconclusive: 1 µM [inhibitor, full curve]",
